Screen size: about 360,000 compounds; about 7,500 (2.1%) were called active. Inconclusive results, whose numbers are uncertain, are shown with a selection of clear calls. Calls come from the whole dose curve; as a rule, active = well fitted cell-killing curve with a large enough effect; inconclusive = small, poorly fitted or top-dose-only effect, or effect the other way, or another doubt; inactive = no such curve, though single readings can be large or run the other way. No potency is given beside an inconclusive call; the fits are too rough.
assay: qHTS for induction of synthetic lethality in tumor cells producing 2HG: qHTS for the HT-1080-IDH1KD cell line; settings: HT-1080 IDH1 knockdown viability, ATP luminescence, 48 h; activity, negative = toxicity: at 46.1 µM (top of the series) unless noted;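 for activity, negative = toxicity: 0% = DMSO wells and -100% = cell-free medium wells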
Summary of the method: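 After a 2 h attachment period, IDH1KD HT-1080 cells took pin-transferred compound for 48 h at 37 °C; ATP-based luminescence after 10 min room-temperature reagent incubation reported viability.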
Potency is the fitted concentration of half-maximal effect; tags give direction and shape of the fitted curve.

| Structure (SMILES) | Potency | activity, negative = toxicity |
| --- | --- | --- |
| Cc1nc(-c2nnc(SCC(=O)Nc3ccc(Cl)cc3)n2C)cs1 | inconclusive [cytotoxic, single point] |  |
| CC(C)Cn1c(/C=N/Nc2nc3ccccc3[nH]2)nc2ccccc21 | inconclusive [cytotoxic, full curve] |  |
| O=C(/C=C/c1ccccc1[N+](=O)[O-])c1ccccc1Br | active: 20.6 µM |  |
| CC(C)COn1c(=S)[nH]c2ccccc2c1=O | inconclusive [cytotoxic, single point] |  |
| COc1ccccc1/C=C/C=N/NC(=O)CCn1cnc2ccccc21 | active: 14.6 µM |  |
| Cc1onc(-c2ccccc2)c1C(=O)Nc1cccc(S(=O)(=O)NC2=NCCC2)c1 |  | inactive: 1.49% |
| Cc1cc(OCCCCCNCCO)ccc1Cl | inconclusive [cytotoxic, single point] |  |
| C=CCNC(=O)/C(C#N)=C/c1ccc(C(=O)O)cc1 |  | inactive: -2.37% |
| COc1ccc(CNC(=O)c2cc(C3CC3)nc3c2cnn3C(C)C)cc1 |  | inactive: -2.93% |
| Cc1ccc(NC(=O)c2ccoc2C)cc1C | inconclusive [cytotoxic, partial curve] |  |
| O=C1COc2ccc(S(=O)(=O)CCC(=O)N3CCN(c4cccc(C(F)(F)F)c4)CC3)cc2N1 | inconclusive [cytotoxic, single point] |  |
| COc1ccc([C@H]2CC(=O)C=C(/C=C/Cc3ccccc3)C2)cc1 | inconclusive [cytotoxic, single point] |  |
| O=C(CCc1ccccc1)NNC(=S)NC(=O)c1ccccc1 | active: 11.2 µM |  |
| O=C(CSc1nnc(-c2ccccc2Br)o1)N1CCc2ccccc2C1 |  | inactive: 9.09% [at 9.24 µM] |
| O=C(/C=N/NC(=O)c1ccc(Cl)cc1Cl)c1ccccc1 |  | inconclusive: -30% [cytotoxic] |
| COc1ccc(/C(C)=N/NC(=O)c2cccc(S(=O)(=O)N3CCCC3)c2)c(O)c1 | inconclusive [cytotoxic, partial curve, poor fit] |  |
| CC(C)Oc1ccccc1NC(=O)CSc1nc2ccccc2c(=O)n1C | inconclusive [cytotoxic, single point] |  |
| COc1ccc(Br)cc1CNC(=O)C1CCN(c2nnc(N3CCCC3=O)s2)CC1 | inconclusive [cytotoxic, single point] |  |
| CC1CCCCN1C(=O)c1cc2nc(-c3ccccc3)cc(-c3ccccc3)n2n1 (stereo not given) | inconclusive [cytotoxic, single point] |  |
| O=C(/C=C/c1ccc(F)cc1)c1ccccc1Br | inconclusive [cytotoxic, single point] |  |
| OC(CSc1ccccc1Cl)CN1CCN(c2ccc(F)cc2)CC1 (stereo not given) | inconclusive [cytotoxic, single point] |  |
| O=c1[nH]c2ccsc2c(=O)n1CCO |  | inactive: -0.781% |
| CC(C)(C=O)C1=CC(=O)c2ccccc2C1=O | active: 13 µM |  |
| CN(C)CCCNc1cc(C(C)(C)C)nc2c(-c3ccc(Cl)cc3)cnn12 | active: 11.6 µM |  |
| CCC(C(=O)Nc1sc(C(N)=O)c(C)c1C(=O)OC)c1ccccc1 (stereo not given) | inconclusive [cytotoxic, partial curve] |  |

| Structure (SMILES) | Potency | activity, negative = toxicity |
| --- | --- | --- |
| COc1ccc(CCNc2nc(N3CCCCC3)nc(N3CCCCC3)n2)cc1OC | inconclusive [cytotoxic, single point] |  |
| CCOc1ccc(-c2nc(N)ncc2-c2ccc(OC)cc2)c(O)c1 |  | inactive: 0.897% |
| O=C1/C(=C\c2ccccc2)CCC/C1=C/c1ccccc1 | inconclusive [cytotoxic, single point] |  |
| Fc1ccc([C@@H]2CCNC[C@H]2COc2ccc3c(c2)OCO3)cc1 | active: 16.4 µM |  |
| Cc1ccc2oc3nc(C)c(C(=O)O)cc3c(=O)c2c1 | inconclusive [cytotoxic, partial curve] |  |
| COc1cc(NC(=O)c2cccc3c2C(=O)N(C2CCCCC2)C3)cc(OC)c1OC | inconclusive [cytotoxic, single point] |  |
| O=C1CC(c2ccccc2)Sc2nc3ccccc3n21 (stereo not given) | inconclusive [rising, partial curve] |  |
| C#CCOCCOCCOCCNc1nc(N2CCN(C(=O)CCCCCCCCCCNC(=O)[C@H](CCCCN)n3cc(C)nn3)CC2)nc(N2CCN(C(=O)CCCCCCCCCCNC(=O)[C@H](CO)n3cc(CCCSC)nn3)CC2)n1 | inconclusive [cytotoxic, single point] |  |
| COc1cc(OC)cc(C2=Cc3ccccc3C(CC(C)=O)N2c2ccc(C#CC3(N)CCCCC3)cc2)c1 (stereo not given) | active: 13 µM |  |
| CCN(CC)S(=O)(=O)c1ccc(N2CCCC2)c(NS(=O)(=O)c2ccc(F)cc2)c1 |  | inactive: -7.34% |
| CC(C)(C)NC(=S)Nc1cccc(C(F)(F)F)c1 | inconclusive [cytotoxic, partial curve] |  |
| CCN(CC(=O)Nc1ccccc1C(F)(F)F)C(=O)c1ccc2c(c1)NC(=O)C(C)S2 (stereo not given) |  | inactive: -18.7% |
| Cc1cccc(CN2CCC(CNC(=O)Nc3ccc(F)c(Cl)c3)CC2)c1 | active: 14.6 µM |  |
| CCc1ccc(NC(=O)NCC2CCN(Cc3cccc(Cl)c3)CC2)cc1 |  | inactive: -7.2% |
| O=C(Nc1ccc(N2CCOCC2)cc1)c1cccc2ccccc12 | inconclusive [cytotoxic, single point] |  |
| CC(C)(C)OC(=O)CNC(=O)c1[nH]cnc1C(=O)Nc1ccc(CNC(=O)OC(C)(C)C)cc1 | active: 20.6 µM |  |
| Cc1ccc(NS(=O)(=O)c2ccc(OCC(N)=O)cc2)cc1 |  | inactive: -5.93% |
| CCCCN(CCCC)Cc1cc(=O)oc2cc(C)c(Cl)cc12 |  | inactive: -9.26% |
| COc1ccccc1N1CCN(C(=O)c2cc(-c3ccc4c(c3)OCO4)on2)CC1 |  | inactive: -5.34% |
| FC(F)(F)c1cc(Cl)c2nc(-c3ccco3)c(Cc3ccccc3C(F)(F)F)n2c1 | inconclusive [cytotoxic, partial curve] |  |
| N#CC1=C(N)Oc2n[nH]c(-c3cccnc3)c2C1c1ccc([N+](=O)[O-])o1 (stereo not given) | inconclusive [cytotoxic, single point] |  |
| O=C(CSc1ncn[nH]1)NCCC(c1ccccc1)c1ccccc1 |  | inactive: -6.27% |
| CC(=O)N(Cc1ccccc1)C(CC(=O)NCc1ccccc1)C(=O)O (stereo not given) | inconclusive [cytotoxic, single point] |  |
| O=C(CCNC(=O)N1CCn2c1nc1ccccc12)NCc1ccccc1Cl |  | inactive: -0.0527% |
| N=C1N(c2ccccc2)C(=S)C(=Nc2ccccc2)N1c1ccccc1 | inconclusive [cytotoxic, full curve, poor fit] |  |

| Structure (SMILES) | Potency | activity, negative = toxicity |
| --- | --- | --- |
| O=C(CSc1nc2ncccc2[nH]1)NCCc1ccccc1 |  | inactive: 7.78% |
| Cc1nc(N2CCN(C(=O)c3ccco3)CC2)c2c3c(sc2n1)CC(C)CC3 (stereo not given) |  | inconclusive: -31% [cytotoxic] |
| Cc1c(/C=N\NC(=O)C2COc3ccccc3O2)c2ccccc2n1C (stereo not given) | active: 0.651 µM |  |
| CCC(=O)Nc1ccc(SC#N)cc1C | active: 7.94 µM |  |
| Cc1ccc(C)c(N2CCN(C(=O)C34CC5CC(C3)CC(n3nnc(C)n3)(C5)C4)CC2)c1 | inconclusive [cytotoxic, partial curve] |  |
| Cc1ccc(C)c(N2CCN(C(C(=O)NC3CCCC3)c3ccco3)CC2)c1 (stereo not given) | inconclusive [cytotoxic, single point] |  |
| CC(C)=CCc1cc(-c2oc3cc(O)cc(O)c3c(=O)c2O)ccc1O |  | inactive: -8.51% |
| Cc1noc(NS(=O)(=O)c2ccc(NC(=O)CSc3nnc4c(n3)[nH]c3ccccc34)cc2)c1C |  | inactive: 13.9% |
| Cc1ccc2cccc(CC(=O)NN)c2c1 | inconclusive [cytotoxic, single point] |  |
| COc1ccc(O)c(C(=O)CC(=O)c2ccccc2C)c1 | inconclusive [cytotoxic, single point] |  |
| CC(=O)c1cccc(NC(=S)NC(=O)CC(C)(C)C)c1 |  | inactive: -20.2% |
| Cc1ccc(NC(=O)CN(C)C(=O)C2CCC2)cc1 |  | inactive: 0.625% |
| CCN(Cc1ccccc1)S(=O)(=O)c1ccc(C(=O)N(CCCN(C)C)c2nc3c(C)c(C)ccc3s2)cc1 | active: 18.4 µM |  |
| CS(=O)(=O)N(CC(O)Cn1c2ccccc2c2ccccc21)c1ccccc1 (stereo not given) | inconclusive [cytotoxic, single point] |  |
| N#C/C(=C\C1CC=CCC1)c1nc2ccccc2[nH]1 (stereo not given) | inconclusive [cytotoxic, single point] |  |
| Cc1ccc(OCCn2cc(/C=C3\C(=O)NN(c4ccccc4)C3=O)c3ccccc32)cc1 |  | inactive: 2.03% |
| O/N=C/c1ccccc1OCc1ccc(Cl)cc1 | inconclusive [cytotoxic, single point] |  |
| Cc1ccc(C(=O)/C=C/c2ccccc2[N+](=O)[O-])cc1 | inconclusive [cytotoxic, single point] |  |
| O=C(COC(=O)CNS(=O)(=O)c1ccc2ccccc2c1)Nc1ccccc1Sc1ccccc1 |  | inactive: -0.897% |
| COc1ccc(C=C(NC(=O)c2ccccc2)C(=O)O)cc1OC |  | inconclusive: 23.7% |
| Nc1c(-c2ccccc2)c(CN2CCOCC2)nn1-c1ccc(F)cc1 |  | inconclusive: 30.6% |
| O=C1[C@H](Cc2ccccc2)NCCCC[C@H](c2ccc(Cl)cc2)N1Cc1ccccc1 | inconclusive [cytotoxic, single point] |  |
| Cc1ccc(C)c(Nc2nn3c(=O)c4ccc(C(=O)NCc5cccnc5)cc4nc3s2)c1 |  | inconclusive: -19.8% [cytotoxic] |
| COc1cc2ccccc2cc1C(=O)Nc1ccccc1N1CCCC1 |  | inactive: -3.44% |
| CN(C)CCNC(=O)c1ccc(Cl)c2cc3ccccc3nc12 | active: 10.3 µM |  |
